Here are results for 42 compounds from ChEMBL document CHEMBL4888484, “Replenishing the malaria drug discovery pipeline: Screening and hit evaluation of the MMV Hit Generation Library 1 (HGL1) against asexual blood stage Plasmodium falciparum ,using a nano luciferase reporter read-out” (2022).

The whole screen tested about 150,000 compounds, of which about 540 (0.36%) showed an effect of 50% or more. This is one part of the list.

The test relates to Plasmodium falciparum. The experiment in a line: Primary screen in NF54 nanoGlo assay, in single point, at 2uM, 72h; a lower Z score goes with more inhibition. The format is functional, Erythrocyte. The following applies: timepoint 72 hour.
Consider `O=C(N[C@@H](C(=O)O)c1ccc(Cl)c(F)c1)c1ccnn1C1CCCC1`, for which the “% Inhibition” value turned out to be 9% and the Z score was -1.46.

As for `CC(C)(C)C(=O)NCCNC(=O)c1ccco1`, the “% Inhibition” value was -45% and the Z score is recorded as 5.24.

`Cc1ncsc1CN1CCc2nn(CC3CC3)c(=O)n2CC1`: the “% Inhibition” value is reported as -10% and the Z score amounted to 1.12.

Consider `Cc1cc(C)n(-c2ccc3nnc(CCCC(=O)Nc4ccncc4)n3n2)n1`, for which the “% Inhibition” value is recorded as -6% and the Z score came out at 0.91.

In the case of `CC(C)c1ccc(C(=O)N2C[C@H]3CC[C@@H](C2)N(Cc2ccccc2)C3)c(=O)[nH]1`, the “% Inhibition” value is listed as -10% and the Z score is 1.76.

Consider `COCCN(C)S(=O)(=O)[C@H]1CCCN(C(=O)c2ccns2)C1`, for which the “% Inhibition” value turned out to be 1% and the Z score is given as -0.12.

Turning to `COc1ccc(CCC(=O)N2CC(S(=O)(=O)CC(C)C)C2)cc1OCc1ccccc1`, the “% Inhibition” value is -12% and the Z score turned out to be 1.54.

For the compound `Cn1cnc2cc(C(=O)OCC3CCOC3c3ccccc3)cnc21` (centres undefined), the “% Inhibition” value is reported as -6% and the Z score was determined as 0.94.

As to `C[C@]1(c2nc(C3(c4ccccc4)CCC3)no2)CCC(=O)NC1`, the “% Inhibition” value is -1% and the Z score is given as 0.16.

`CCCN1CCCN(C(=O)c2nnn(-c3cccc4cccnc34)c2C)CC1=O`: the “% Inhibition” value is reported as -6% and the Z score is on record as 0.87.

Take `COCCCN1C(=O)CC[C@@H]2CN(C(=O)NC3CCCCC3)CC[C@@H]21`: the “% Inhibition” value was determined as 0% and the Z score amounted to 0.

Regarding `C[C@H]1CN(CCC(=O)Nc2sc3c(c2C#N)CCCCC3)CCO1`, the “% Inhibition” value was -16% and the Z score is on record as 2.54.

For the compound `CC(NC(=O)OC(C)(C)C)C1COCCC1NCc1cc(F)cc(Br)c1` (centres undefined), the “% Inhibition” value is -8% and the Z score is 0.78.

Turning to `O=C(NC1CCCCCC1C(=O)O)c1ccc(Br)o1` (centres undefined), the “% Inhibition” value was -10% and the Z score came out at 0.98.

Take `O=C(O)c1nccnc1C(=O)N1CCCCC1`: the “% Inhibition” value is given as 14% and the Z score is listed as -2.24.

In the case of `CN(Cc1cnccn1)c1ccccn1`, the “% Inhibition” value is given as -11% and the Z score is recorded as 2.08.

`Cc1cc(C#N)cc(NS(=O)(=O)c2ccc3c(c2)C[C@H](C)O3)n1`: the “% Inhibition” value was determined as 1% and the Z score is -0.15.

In the case of `CCN1CCN(C(=O)[C@@H](c2ccccc2)n2c(Cc3ccc(F)cc3)nc3cc(C)c(C)cc32)CC1`, the “% Inhibition” value is reported as -3% and the Z score is given as 0.46.

For `COC(=O)c1c(Cl)c(C2CC2)nc2c1c(C)nn2-c1ccccc1F`, the “% Inhibition” value is given as -45% and the Z score was 5.26.

Turning to `c1ccc2c(c1)n[n+]1c3ccccc3[n-]n21`, the “% Inhibition” value is recorded as -8% and the Z score stood at 1.56.

For the compound `CCc1ncnc(NC2(CO)CCCC2)c1F`, the “% Inhibition” value is reported as -16% and the Z score is on record as 2.05.

Consider `O=C(NCC1(OCCO)CCCC1)C1CCOCC1`, for which the “% Inhibition” value is recorded as -8% and the Z score is 1.13.

Take `CN(C)c1ccnc(NC(=O)N2CCC[C@@H]2CC2CCCC2)n1`: the “% Inhibition” value is given as -8% and the Z score came to 0.86.

As to `O=C(COc1ccccc1F)N1CC(COc2ccc(F)cc2)C1`, the “% Inhibition” value is given as 2% and the Z score is on record as -0.28.

For `O=C(CN(C[C@H]1CCCO1)C(=O)c1ccc(Cl)cc1)Nc1nc(-c2ccccc2)cn1-c1ccccc1`, the “% Inhibition” value was -2% and the Z score is given as 0.35.

For the compound `Cc1[nH]ccc1C(=O)Nc1cccc(NC(=O)N2CCCCCC2)c1`, the “% Inhibition” value is listed as -5% and the Z score is listed as 0.85.

With `Cn1cc(S(=O)(=O)NC[C@H](O)c2ccc3c(c2)CCO3)cn1`, the “% Inhibition” value is -17% and the Z score was found to be 2.63.

Regarding `CC(C)CN(CC(F)(F)F)C(=O)c1cc(-c2ccncc2)nn1C`, the “% Inhibition” value is reported as 2% and the Z score is recorded as -0.24.

Take `Cn1cncc1-c1noc(-c2cc(S(N)(=O)=O)ccc2N2CCOCC2)n1`: the “% Inhibition” value is given as 1% and the Z score is recorded as -0.09.

With `CCCCN(Cc1ccccc1)c1ccc(C(=O)O)cc1NC(=O)c1ccc(Cl)cc1`, the “% Inhibition” value is -1% and the Z score turned out to be 0.16.

Consider `CCC#CCN1CCC(CNC(=O)c2cccnc2C)CC1`, for which the “% Inhibition” value came to 3% and the Z score was -0.35.

Take `Cc1c(Cl)cccc1NC(=O)Cn1c(=O)n(CCc2cccs2)c(=O)c2ccccc21`: the “% Inhibition” value stood at 30% and the Z score is on record as -3.44.

`O=C(NC1CC1)[C@H]1O[C@H](CCN2CCN(c3ccccc3)CC2)CC[C@@H]1O`: the “% Inhibition” value is on record as -4% and the Z score was found to be 0.68.

`CN1CCCC[C@@H]1CCC(=O)NCCCOC1CCCC1`: the “% Inhibition” value was 3% and the Z score is -0.45.

In the case of `COc1ccc(CNc2cccc3c2CCNC3=O)cn1`, the “% Inhibition” value is recorded as -10% and the Z score came out at 1.92.

For the compound `Cc1ncc(CN2C[C@H](CO)OC(C)(C)C2)s1`, the “% Inhibition” value was -7% and the Z score came to 0.93.

In the case of `OC1CCCCC1NC1CCCc2sccc21` (centres undefined), the “% Inhibition” value came to 1% and the Z score was -0.13.

Take `COc1ccc(OC)c(CNC(=O)C2CCN(c3cnc4nccnc4c3)CC2)c1`: the “% Inhibition” value came to 10% and the Z score is listed as -1.91.

In the case of `Cc1cc(C)c2oc(-c3cccc(NC(=O)c4ccc5ccccc5c4)c3)nc2c1`, the “% Inhibition” value is on record as -2% and the Z score is 0.23.

As for `Cc1oncc1C(=O)NCc1cccnc1-c1ccncc1`, the “% Inhibition” value is listed as -12% and the Z score amounted to 1.41.

In the case of `O=C(c1cccnc1)N1CC(S(=O)(=O)Nc2ccccc2)C1`, the “% Inhibition” value stood at 8% and the Z score is -1.28.

In the case of `C=C[C@](C)(CCOC)C(=O)N1CCC2(CCCC2)C1`, the “% Inhibition” value is listed as -10% and the Z score was found to be 1.88.
